# Results as given in PubChem BioAssay AID1345082 (National Center for Advancing Translational Sciences (NCATS), 2018).
# In all, about 94,000 compounds went through this assay and about 4,000 (4.3%) were called active. Inconclusive means that the source gave no clear call. Such entries were picked first, then a sample of the others. Calls follow the shape of the dose curve; as a rule, active = well fitted inhibition curve with a large enough effect; inconclusive = small, poorly fitted or top-dose-only effect; inactive = no such curve, though single readings can be large or run the other way. A potency beside an inconclusive call is a rough fit, not a confirmed value.
# Assay: Cytotoxic Profiling in NIH 3T3 Cell Line of Diverse Libraries Using Quantitative High-Throughput Screening; also: nearly all actives have a fitted effect of over 55% in size
# Settings: NIH 3T3 viability, CellTiter-Glo ATP luminescence, 48-72 h; activity change, negative = cytotoxicity: at 96.7 µM (top of the series); series mostly up to 96.7 µM
# Summary of the method: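 Viability of NIH 3T3 cells after 48 or 72 hr compound treatment at 37 °C was assessed by CellTiter-Glo, with luminescence imaged following a 10 min room-temperature step.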
# % is scaled to controls: 0 for no effect and ±100 for the full control effect; potency is read from the fitted curve at half-maximal effect; tags tell the direction and shape of the fitted curve.
SMILES,Potency,"activity change, negative = cytotoxicity",outcome
COCc1nc(-c2ccc(OC3CCN(Cc4ccc(C(F)(F)F)cc4)C3)cc2)no1 (stereo unspecified),"inconclusive: 2.82 µM [inhibitor, full curve, poor fit]",–,–
O=C(CCc1cc2n(n1)CCCNC2)NCc1csc2c1CCCC2,–,inactive: 0.304%,–
Cc1ccc(C2Cn3nnc(C(=O)N4CCC(C(=O)NCCC5=CCCCC5)CC4)c3CO2)cc1 (stereo unspecified),–,–,inactive
Cn1cc(-c2cnc3[nH]cc(CC(=O)NC4CCC4)c3c2)cn1,active: 31.6 µM,–,–
COc1ccc2[nH]c3c(c2c1)CCNC31CCN(C(=O)c2cccnc2)CC1,"inconclusive: 70.8 µM [inhibitor, partial curve, poor fit]",–,–
O=C1NCN(Cc2ccc(Cl)cc2)C12CCN(Cc1ccc(C(F)(F)F)cc1)CC2,"inconclusive: 50.1 µM [inhibitor, partial curve, poor fit]",–,–
CCCN1CCN(C(=O)C2CCc3ncc(-c4ccsc4)n3C2)CC1 (stereo unspecified),"inconclusive: 44.7 µM [inhibitor, partial curve, poor fit]",–,–
CCc1nn(-c2ccccc2)c(Oc2ccccc2F)c1CCC(=O)NCCOC,"inconclusive: 20 µM [inhibitor, full curve, poor fit]",–,–
Cc1noc2c(NCCN3CCOCC3)cc(-c3cccnc3)nc12,"inconclusive: 56.2 µM [inhibitor, partial curve, poor fit]",–,–
O=C(Nc1ccccc1)c1cc2n(n1)CC(c1ccc3c(c1)OCO3)OC2 (stereo unspecified),"inconclusive: 50.1 µM [inhibitor, single point]",–,–
CCC(C(=O)N1CCc2cn(CCOC)c3cccc(c23)C1)c1ccccc1 (stereo unspecified),"inconclusive: 17.8 µM [inhibitor, partial curve, poor fit]",–,–
COCC(=O)N1CCCC(c2nn(-c3ccc(OC)cc3)c(=O)[nH]2)C1 (stereo unspecified),–,inactive: -26.4% [at 138 µM],–
COC1CCOC2(CCN(C(=O)c3ccsc3)CC2)C1 (stereo unspecified),–,inactive: -9.09%,–
COC(=O)C1=CN(CC(=O)Nc2c(C)cccc2C)S(=O)(=O)N=C1C,–,inactive: -24.4%,–
COC(=O)[C@@H]1Cc2c([nH]c3ccccc23)[C@H]2C[C@@H](NCCc3cnc[nH]3)C[C@@H](c3cccc(Cl)c3)N21,"inconclusive: 28.2 µM [inhibitor, full curve, poor fit]",–,–
CNC(=O)c1cc(C2CC2)nc2c1c(C1CCN(C(=O)c3ccc(OC)cc3)CC1)nn2C,"inconclusive: 50.1 µM [inhibitor, partial curve, poor fit]",–,–
O=C(COc1ccccc1)N[C@H]1CO[C@H]2[C@@H]1OC[C@@H]2Nc1nccc(-c2cccs2)n1,active: 35.5 µM,–,–
Cn1nccc1CN1CCC2(COc3ccccc3C(=O)N2)C1 (stereo unspecified),"inconclusive: 56.2 µM [inhibitor, partial curve, poor fit]",–,–
CN(C)C(=O)c1ccc2nccn2c1,–,–,inactive [at 174 µM]
COCCNC(=O)C1CCCN1C(=O)c1cccc(-c2ccccn2)c1 (stereo unspecified),–,inactive: -17.3%,–
CN(Cc1ccccc1)C(=O)CN1C(=O)COc2ccc(C(=O)COc3ccc(F)cc3)cc21,"inconclusive: 35.5 µM [inhibitor, partial curve]",–,–
O=C(O)C[C@@H]1CCN(C(=O)C(=O)O)C[C@@H]1CC1=NCCc2cc(F)ccc21,–,inactive: -4.26% [at 174 µM],–

SMILES,Potency,"activity change, negative = cytotoxicity",outcome
O=C1c2cnc(-c3cccc(CO)c3)nc2OCCN1c1cccc(C(F)(F)F)c1,active: 17.8 µM,–,–
Cc1cccc(C)c1-c1cc(C(=O)NCc2cccc(Cl)c2)c2cnn(C)c2n1,"inconclusive: 50.1 µM [inhibitor, partial curve, poor fit]",–,–
COc1ccccc1-c1ccc2ncc(Nc3ccc4c(c3)OCO4)n2n1,"inconclusive: 89.1 µM [inhibitor, partial curve]",–,–
O=C(NC1CCCN(c2cc(-c3ccc(F)cc3)[nH]n2)C1)c1cc(F)ccc1F (stereo unspecified),"inconclusive: 50.1 µM [inhibitor, partial curve, poor fit]",–,–
Cc1cccc(-c2cccc(CN3CCCC(C(=O)NC4CC4)C3)c2)c1 (stereo unspecified),"inconclusive: 79.4 µM [inhibitor, partial curve, poor fit]",–,–
CC1=C[C@@H](CN2CCN(c3ncccn3)CC2)[C@H](C(C)C)C[C@H]1Cc1nnc(-c2ccccc2F)o1,active: 39.8 µM,–,–
Cn1nc(-c2nncn2Cc2ccccc2)c2c1CCN(C(=O)CCC(=O)N1CCOCC1)C2,–,–,inactive
O=[S+]1([O-])c2cccnc2OC(Cn2cccc2)CN1CCC1=CCCCC1 (stereo unspecified),"inconclusive: 44.7 µM [inhibitor, partial curve, poor fit]",–,–
O=C(NCC1CC1)c1cccc(OC2CN(Cc3cccc(F)c3F)C2)c1,"inconclusive: 44.7 µM [inhibitor, partial curve, poor fit]",–,–
COC(=O)c1ccc2nc(C[C@@H]3C[C@@H](C(C)C)[C@H](CNCc4ccccc4F)C=C3C)[nH]c2c1,active: 22.4 µM,–,–
O=c1n(-c2ccc(Cl)cc2)nc2n1CCN(Cc1ccsc1)C2,"inconclusive: 31.6 µM [inhibitor, full curve]",–,–
CCCN(C)CC1(O)CCC2(CCN(C(=O)C3CCCC3)CC2)CC1,"inconclusive: 50.1 µM [inhibitor, partial curve, poor fit]",–,–
CN1CCN(c2nc3c(c(=O)[nH]2)CCN(Cc2cc(Cl)ccc2F)CC3)CC1,–,inactive: -12%,–
O=C(CCC1CCCN(Cc2cccn2-c2cccnc2)C1)Nc1ccccc1F (stereo unspecified),–,inactive: -20.9%,–
COCc1nnc(NC(=O)C2c3ccccc3C(=O)N(CC(C)C)C23CCCCC3)s1 (stereo unspecified),–,inactive: 2.89%,–
CN1CCCN(Cc2ccc3c(c2)OCO3)c2ccccc21,"inconclusive: 44.7 µM [inhibitor, partial curve, poor fit]",–,–
Cc1nn(-c2ccccc2)c2c1C(C(C)C)N(C1CCN([S+](=O)([O-])c3ccccc3)C1)C2=O (stereo unspecified),"inconclusive: 25.1 µM [inhibitor, full curve]",–,–
O=C(O)CCn1ncc2cc(OCC3CCN(C(=O)C4CC4)CC3)ccc21,"inconclusive: 79.4 µM [inhibitor, partial curve, poor fit]",–,–
COc1cccc(-c2ccc3c(n2)CNC(=O)CO3)c1,"inconclusive: 112 µM [inhibitor, partial curve, poor fit]",–,–
Cn1ncc2c(-c3ccc([S+](C)(=O)[O-])cc3)cc(C(=O)NCc3ccc(F)cc3)nc21,"inconclusive: 44.7 µM [inhibitor, partial curve, poor fit]",–,–
CCN1CCC(CC(=O)N2CCCC3(C=Cc4ccccc4O3)CC2)CC1 (stereo unspecified),"inconclusive: 44.7 µM [inhibitor, partial curve, poor fit]",–,–
Cc1cccc(CN2CC[C@@H]3OCC(=O)N(Cc4ccccc4)[C@H]3CC2)c1,active: 100 µM,–,–

SMILES,Potency,"activity change, negative = cytotoxicity",outcome
CCCOc1ccc(CN2C[C@@H](CO)[C@H](c3ccncc3)C2)cc1,–,inactive: -24.4%,–
CCC(CC)NC(=O)c1c(OCC2CC2)cc(=O)n2c1CCCCC2,"inconclusive: 70.8 µM [inhibitor, partial curve, poor fit]",–,–
O=C(c1ccc(F)cc1)N1CCN(Cc2ccccc2-c2cccnc2)CC1,"inconclusive: 50.1 µM [inhibitor, partial curve, poor fit]",–,–
COc1cccc(S(=O)(=O)N2CCc3c(c(CN4CCOCC4)nn3C)C2)c1,–,inactive: -27.3%,–
Cc1ccc(C(=O)N2CCN(c3nccc(Nc4ccccc4Cl)n3)CC2)cc1,"inconclusive: 44.7 µM [inhibitor, partial curve, poor fit]",–,–
Cc1cc(=O)n(CC(=O)NCCc2ccc(Cl)cc2)c(N2CCOCC2)n1,–,inactive: -12%,–
O=C(C1CCCCC1)N1CCCC2(CC(c3ccccn3)=NO2)C1 (stereo unspecified),–,inactive: 0.0776%,–
COc1ccc(CN2Cc3[nH]nc(-c4ccc(CO)cc4)c3CC2=O)cc1,"inconclusive: 89.1 µM [inhibitor, partial curve]",–,–
O=[S+]([O-])(NC1CCN(c2nccc(Nc3ccccc3F)n2)CC1)c1cccs1,active: 44.7 µM,–,–
COc1cccc(-c2cn3cc(C(=O)NCC(F)(F)F)nc3s2)c1,"inconclusive: 50.1 µM [inhibitor, partial curve, poor fit]",–,–
O=C(c1[nH]nc2c1CCc1ccccc1-2)N1CCC(c2noc(-c3ccncc3)n2)C1 (stereo unspecified),–,inactive: -21%,–
CCOc1ccccc1C(=O)N1CCC(Cc2nc(-c3ccc(OC)cc3)no2)CC1,"inconclusive: 35.5 µM [inhibitor, partial curve]",–,–
CN1CC(=O)N(c2cccc(F)c2)Cc2c1ncnc2N1CCC(F)CC1,–,inactive: -19.7%,–
CN1CCOc2c(C(=O)NCc3cnn(C)c3)cc(-c3ccccc3O)cc21,"inconclusive: 79.4 µM [inhibitor, partial curve, poor fit]",–,–
Cc1ccccc1C(=O)N1CCCC(c2nn(-c3ccc(Cl)cc3)c(=O)[nH]2)C1 (stereo unspecified),"inconclusive: 50.1 µM [inhibitor, partial curve, poor fit]",–,–
Cn1ncc2c(C(=O)NCc3ccc(Cl)cc3)cc(-c3ccc(C(F)(F)F)cc3)nc21,–,inactive: -22.1%,–
CN(C)S(=O)(=O)N1CCC(c2cc(-c3ccccc3)n[nH]2)CC1,"inconclusive: 50.1 µM [inhibitor, partial curve, poor fit]",–,–
COc1ccc(F)cc1-c1cccc(C(=O)NCCNC(=O)c2cccnc2)c1,active: 35.5 µM,–,–
O=C1CCCCN1CC(=O)N1CCCC(CCc2ccc(F)cc2F)C1 (stereo unspecified),–,inactive: -20%,–
COc1ccc(N2CCN(c3ncncc3-c3nc(-c4ccccc4)no3)CC2)cc1,"inconclusive: 44.7 µM [inhibitor, partial curve, poor fit]",–,–
COC[C@@H]1OCCN(S(=O)(=O)c2cc(OC)ccc2OC)[C@H]1c1ccccc1,–,inactive: -8.44%,–
Cn1ncc2c(C(=O)NCC3CCCCC3)cc(C(C)(C)C)nc21,–,inactive: -22.8% [at 138 µM],–
